Source: article PMC4336329 (PLoS ONE, 2015)
Among all 310,000 compounds or so, about 2,200 (0.71%) showed an effect of 50% or more. The effect is printed as a negative number. The list shows a part of the results.

Target: human ether-à-go-go-related gene (hERG) potassium channel (human, UniProt Q12809)
Assay: primary screen, population patch clamp on CHO cells stably expressing hERG

Sequence of human ether-à-go-go-related gene (hERG) potassium channel (Q12809 whole entry, looked up): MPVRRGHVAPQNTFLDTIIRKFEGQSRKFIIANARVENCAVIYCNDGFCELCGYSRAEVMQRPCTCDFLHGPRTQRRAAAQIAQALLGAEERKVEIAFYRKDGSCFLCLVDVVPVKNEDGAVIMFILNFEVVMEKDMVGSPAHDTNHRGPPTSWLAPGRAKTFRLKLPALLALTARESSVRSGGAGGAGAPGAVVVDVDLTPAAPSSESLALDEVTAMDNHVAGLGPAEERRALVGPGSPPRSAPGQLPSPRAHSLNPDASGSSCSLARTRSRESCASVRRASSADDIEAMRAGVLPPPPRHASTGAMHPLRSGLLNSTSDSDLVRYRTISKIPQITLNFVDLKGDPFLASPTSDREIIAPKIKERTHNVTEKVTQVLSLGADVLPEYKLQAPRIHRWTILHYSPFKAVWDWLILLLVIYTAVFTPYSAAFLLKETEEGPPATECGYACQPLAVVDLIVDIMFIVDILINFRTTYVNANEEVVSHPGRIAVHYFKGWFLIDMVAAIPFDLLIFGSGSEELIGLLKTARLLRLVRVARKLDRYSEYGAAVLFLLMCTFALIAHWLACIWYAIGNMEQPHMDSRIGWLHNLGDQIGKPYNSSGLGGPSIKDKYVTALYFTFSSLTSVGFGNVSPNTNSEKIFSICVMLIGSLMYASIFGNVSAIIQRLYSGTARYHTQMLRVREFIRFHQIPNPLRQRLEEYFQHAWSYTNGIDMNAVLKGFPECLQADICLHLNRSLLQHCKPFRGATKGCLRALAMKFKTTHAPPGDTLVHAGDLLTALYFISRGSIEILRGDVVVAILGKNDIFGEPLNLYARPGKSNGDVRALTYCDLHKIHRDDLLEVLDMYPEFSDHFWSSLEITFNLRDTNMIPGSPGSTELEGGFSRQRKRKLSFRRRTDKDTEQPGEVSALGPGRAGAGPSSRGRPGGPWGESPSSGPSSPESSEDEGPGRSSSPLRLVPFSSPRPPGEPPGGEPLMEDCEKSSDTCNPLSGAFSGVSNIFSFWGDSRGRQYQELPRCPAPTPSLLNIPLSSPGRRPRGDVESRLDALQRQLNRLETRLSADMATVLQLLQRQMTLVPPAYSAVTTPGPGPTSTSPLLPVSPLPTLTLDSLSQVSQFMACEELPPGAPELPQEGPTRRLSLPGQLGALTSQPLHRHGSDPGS

| Structure (SMILES) | hERG current change (%, negative = inhibition) at 1uM |
| --- | --- |
| O=C(c1ccc(OC2CCN(CCc3ccccc3)CC2)cc1)N1CCCCC1CCCO (stereo not shown) | 7.99% |
| CC(=O)Cn1cnc2c(cnn2-c2ccccc2)c1=O | 13.2% |
| Cc1ccc(-c2nc(NC(=O)CSc3cc(C)c4ccccc4n3)ns2)cc1 | 10.5% |
| Cc1cc(C)c(C(=O)CN2C(=O)C(=O)N(C3CCCC3)C2=O)cc1C | 16.5% |
| CC(O)c1cccc(NC(=O)CCC(=O)O)c1 (stereo not shown) | 5.28% |
| CN1c2ccccc2C(C)(C)[C@]12C=Cc1cc(O)ccc1O2 | 16.4% |
| COc1ccc(C2=NN(CC(=O)Nc3ccccc3C)C(=O)CC2)cc1 | -7.27% |
| Cc1ccccc1NC(=O)CN1CCC(C(=O)c2ccc3c(c2)OCCO3)CC1 | -7.95% |
| Cc1cc(NC(=O)COC(=O)c2cccc(OCc3ccccc3)c2)no1 | 16.9% |
| CCOc1ccc(S(=O)(=O)N2CCN(S(=O)(=O)c3ccc(C(C)=O)cc3)CC2)cc1 | 11.2% |
| Cc1ccc(NC(=O)C2CC(=O)Nc3nncn32)cc1 (stereo not shown) | 5.23% |
| Cn1cccc1/C=C1\SC(=O)N(CC(=O)Nc2ccc(F)cc2)C1=O | 9.76% |
| COc1ccc(C(=O)NCc2cccnc2)cc1 | -4.35% |
| c1ccc(C2CC(c3cccs3)=NN2c2ccccc2)cc1 (stereo not shown) | 11.7% |
| Cc1cc(NC(=O)CSc2nnc(-c3ccc(S(=O)(=O)N4CCCC4)cc3)n2C)no1 | 11.7% |
| O=C(NC1CC1)C1=C[C@@H](C2CC2)C[C@@H](OCCCCO)O1 | 1.32% |
| CCOC(=O)c1c(C)c(C(=O)NCCCN2CCCC2=O)c(C)n1CC | 1.54% |
| CC(=O)N1CCOc2ccc(S(=O)(=O)N3CCC(C(=O)Nc4cc(C)ccc4C)CC3)cc21 | 7.31% |
| O=C(NC1CCCCC1)C1CCCN(S(=O)(=O)c2ccc(F)cc2)C1 (stereo not shown) | 4.71% |
| CCC1=[N+](CC(=O)c2ccc(C)cc2)CCn2cccc21.[Br-] | 12.5% |
| CC[C@H]1CN(C)CCc2c([nH]c3ccccc23)C(=O)C[C@@H]1/C(=C\OC)C(=O)OC | -53.3% |
| COc1ccc(OC)c(-n2cc3c(=O)n(C)c(=O)n(C)c3c2)c1 | -4.49% |

| Structure (SMILES) | hERG current change (%, negative = inhibition) at 1uM |
| --- | --- |
| COc1ccc(/C=C\C(=O)NCc2ccc3[nH]c(C)cc3c2)cc1OC | 6.87% |
| COc1cccc(CNCCc2ccc3c(c2)OCO3)c1OC.O=C(O)C(=O)O | 5.32% |
| Cc1c(Cl)cccc1NC(=S)NCCC(C)C | 16.7% |
| COc1ccc(-n2c(SC)nnc2-c2c[nH]c3ccccc23)cc1 | 2.87% |
| Cc1ccc(/C=C/C(=O)NCc2ccncc2)cc1 | 2.86% |
| CCOc1ncccc1C(=O)NCc1ccc(OC)cc1 | 16.8% |
| CC(C)Cc1nnc(NC(=O)CCC(=O)N2CCN(Cc3ccc(Cl)cc3)CC2)s1 | 14.6% |
| O=[N+]([O-])c1cc(/C=N\Nc2ccccn2)ccc1Cl | 11.1% |
| OCC[C@@H]1C[C@H](O)[C@@H](O)[C@]2(Cc3ccccc3O2)O1 | 4.27% |
| CSc1nccc(Oc2cncc(Cl)c2)n1 | 10.5% |
| CCC(C)(C)NC(=O)CN(C(=O)CCC(=O)Nc1nccs1)c1ccc2c(c1)OCO2 | 4.62% |
| Cc1ccc(C(=O)OCCn2cc(C#N)c(=O)[nH]c2=O)cc1 | 11.6% |
| COc1ccc(N/C=C(\C#N)c2nc3ccccc3n2C)c(OC)c1 | 4.3% |
| CCOC(=O)N1CCN(C(=O)c2cccc(OC)c2OC)CC1 | 14% |
| N#C/C(=C(/O)COC(=O)c1ccc(Cl)c(S(=O)(=O)N2CCOCC2)c1)c1nc2ccccc2[nH]1 | 6.33% |
| CC(C)CCN(C(=O)Cc1ccccc1F)c1c(N)n(Cc2ccccc2)c(=O)[nH]c1=O | 3.85% |
| O=C(CSc1nnc(CNC(=O)c2ccco2)o1)Nc1nc2ccccc2s1 | 12.1% |
| CCc1nnc(NC(=O)CN2CCN(S(C)(=O)=O)CC2)s1 | -5.51% |
| CSCCC(NS(=O)(=O)c1ccc(Cl)cc1)C(=O)OCC(=O)N1CCCc2ccccc21 (stereo not shown) | 5.83% |
| COc1ccc(OCC(=O)NNC(=O)Nc2cccc(Cl)c2)cc1 | 16.1% |
| O=c1n(Cc2ccccc2)nc2n1-c1ccccc1SC2 | 9.1% |
| CC1(C(=O)N/N=C/c2ccccc2)CC1(Br)Br (stereo not shown) | 9.54% |

| Structure (SMILES) | hERG current change (%, negative = inhibition) at 1uM |
| --- | --- |
| Cc1ccc(/C(N)=N/OC(=O)c2ccco2)cc1 | 15.8% |
| CC(=O)c1ccc(NC(=S)N2CCN(CCO)CC2)cc1 | 10.2% |
| O=C(CCC(=O)N(CC(=O)NC1CCCCC1)c1ccc(F)cc1)Nc1ccccn1 | 4.77% |
| COCCOC(=O)c1c(NC(=O)CN2c3ccccc3CC2C)sc(C(N)=O)c1C (stereo not shown) | 6.88% |
| Cc1nn(Cc2ccc(Cl)cc2)c(C)c1N | 13.5% |
| CCc1ccc(NCCC(=O)c2ccc(Br)cc2)cc1 | 43.2% |
| CC(C)OCCCNC(=O)NC(=O)c1ccc(Cl)cc1 | 6.6% |
| Cc1ccc(-c2nc(S(=O)(=O)c3ccc(C)cc3)c(N(C)C)o2)cc1 | 3.75% |
| COC(=O)c1ccccc1NC(=O)CSCC(=O)Nc1ccccc1OC | 4.96% |
| CC(OC(=O)Cn1cnc2c1c(=O)n(C)c(=O)n2C)C(=O)NCc1ccccc1 (stereo not shown) | 17% |
| C#CCOCCOCCOCCNc1nc(N2CCN(C(=O)Cn3cc(CCCC[NH3+])nn3)CC2)nc(N2CCN(C(=O)Cn3cc(CCCC[NH3+])nn3)CC2)n1.[Cl-] | 8.09% |
| CCOC(=O)C1CCN(C(=O)CCc2nnc3ccc(N4CCN(C)CC4)nn23)CC1 | 7.74% |
| CCc1nnc(NC(=O)CN2C(=O)/C(=C/c3cc(OC)c(OC)c(OC)c3)SC2=S)s1 | 14.9% |
| Cc1cccc2cc(C#N)c(SCC(=O)NCc3cccs3)nc12 | 6.43% |
| COc1ccc2c(c1)cc1n2CCN2CCCN=C12.Cl | -18.4% |
| Cc1cc(NC(=O)CCN2C(=O)/C(=C/c3ccccc3Cl)SC2=S)no1 | 12.3% |
| CCc1ccc(CCC(=O)Nc2nc(CC(C)=O)ns2)o1 | 17.6% |
| N/C(=N\OC(=O)CCCN1C(=O)c2ccccc2C1=O)c1ccc(Br)cc1 | 8.42% |
| Cc1sc2ncn(CC(=O)NCC(=O)N(C)Cc3ccccc3)c(=O)c2c1C | 3.63% |
| CC(C)Cn1c(C23CC4CC(CC(C4)C2)C3)n[nH]c1=S | 10.1% |
| Cc1ccc(/C=N/Nc2ccc(C(=O)O)cc2)o1 | 1.52% |
| CCN(C(=O)COC(=O)c1ccc(C=O)cc1)c1c(N)n(Cc2ccccc2)c(=O)[nH]c1=O | 15.3% |

| Structure (SMILES) | hERG current change (%, negative = inhibition) at 1uM |
| --- | --- |
| O=C(Nc1ccccc1[N+](=O)[O-])c1cccnc1Cl | 7.57% |
| Cc1cc(C(=O)Nc2ccc(Br)cn2)sc1C | 14.7% |
| CC(CN1CCOCC1)OC(=O)c1ccc(Cl)cc1Cl.Cl (stereo not shown) | 11.5% |
| CC1=CC(=O)O[C@@H]1[C@@]1(C)C[C@H]2OC(=O)C[C@H]3[C@@H](C)C(=O)C(O)=C1[C@@]23CO | 4.82% |
| CN(C)CCn1c2c(c(SCC(=O)Nc3ccccc3C(F)(F)F)nc1=O)CCCC2 | -0.132% |
| Cc1ccc(N=C(NO)c2nonc2N)cc1 | 10.8% |
| Cc1ccc(NC(=O)COC(=O)COc2ccc(Cl)cc2)c([N+](=O)[O-])c1 | -3.07% |
| COc1cc2c(cc1OC)CN(C(=O)CSc1ccc(F)cc1)CC2 | 6.25% |
| O=C(N/N=C1\CCCc2ccccc21)c1ccc([N+](=O)[O-])cc1Cl | 6.9% |
| CC(=O)c1cccc(NC(=O)c2csc(-n3nc(C)cc3C(F)(F)F)n2)c1 | -0.0952% |
| Cn1cccc1Cc1nnc(SCC(=O)Nc2ccccc2F)n1-c1ccc(F)cc1 | 4.36% |
| COc1ccccc1Oc1ccc(N/C=C/C(=O)c2ccco2)cc1 | 26% |
| CCCc1cc(=O)n2[nH]c(C)c(-c3ccccc3)c2n1 | 9.56% |
| CCCCOc1ccc(C2OC34CCCCC3C(C#N)(C#N)C2(C#N)C(=N)O4)cc1 (stereo not shown) | 0.879% |
| COC(=O)c1ccccc1NC(=O)CN1CCC(NC(=O)c2ccc(C)cc2)CC1 | 7.83% |
| COc1ccccc1NS(=O)(=O)c1ccc(O)c(C(=O)OCC(=O)N2c3ccccc3CC2C)c1 (stereo not shown) | 5.21% |
| COc1cc2[nH]c3c(=O)n(CCN4CCCCC4)cnc3c2cc1OC | 9.82% |
| O=S(=O)(c1ccc(Cl)cc1)N1CCC(c2nc3ccccc3[nH]2)CC1 | 7.61% |
| COc1cc2c(cc1OC)CN(CC(=O)Nc1ccc(C)cc1)CC2 | 0.918% |
| O=C1N/C(=C/c2ccsc2)C(=O)N1c1ccccc1 | 9.37% |
| Cc1cc(=S)c2cccc(C)c2[nH]1 | 8.81% |
| Cc1cc(C)c(NC(=O)Cn2nc(-c3ccccc3)nc2-c2ccccc2)c(C)c1 | 0.468% |
